In PubChem BioAssay AID1346428 (National Center for Advancing Translational Sciences (NCATS), 2018):
Hit rate of the full screen: of about 48,000 compounds, about 1,200 (2.5%) were called active. Not shown: some 2% with an inconclusive outcome.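 The calls were made as follows: active = activation of at least 60% and not above a set upper limit (about 1 call in 100 departs from these limits); inconclusive = activation of 40% to 60%, or above that upper limit; inactive = activation under 40%.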 This is one part of the list.

Target: Probable G-protein coupled receptor 32 (Homo sapiens) (UniProt O75388)
Sequence of UniProt O75388 (O75388 whole entry, looked up): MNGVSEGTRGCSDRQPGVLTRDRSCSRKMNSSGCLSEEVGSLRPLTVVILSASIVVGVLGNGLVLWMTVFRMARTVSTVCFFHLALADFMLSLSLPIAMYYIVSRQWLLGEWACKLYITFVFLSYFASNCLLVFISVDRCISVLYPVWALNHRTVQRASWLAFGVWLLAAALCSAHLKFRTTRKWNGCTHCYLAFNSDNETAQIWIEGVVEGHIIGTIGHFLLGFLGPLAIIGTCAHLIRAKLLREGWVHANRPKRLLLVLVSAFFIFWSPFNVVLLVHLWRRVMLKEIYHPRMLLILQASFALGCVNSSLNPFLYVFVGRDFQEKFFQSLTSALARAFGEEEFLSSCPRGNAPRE
Test: qHTS for Agonists of Human Resolvin D1 Receptor DRV1; also: 0% is about no effect
Details: CHO-K1 GPR32 beta-arrestin PathHunter luminescence, 90 min; at 76.9 µM; stronger effect = higher value; zero percent set by DMSO-only wells
Method in brief: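 GPR32 activation in stably transfected CHO-K1 cells, detected as beta-arrestin recruitment by enzyme-fragment complementation. Compound exposure: 90 min, 37 °C.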

SMILES	activation
Cc1cc(C)cc(NC(=O)CSCc2cc(=O)c3ccc(C)c(C)c3[nH]2)c1	inactive: -13.2%
CNS(=O)(=O)c1cn(CC(=O)N2CCN(c3cc(C)ccc3C)CC2)cc1S(=O)(=O)NC	inactive: -6.82%
O=C(CCCn1c(=O)c2sccc2n(Cc2cccc(Cl)c2)c1=O)NCc1ccc2c(c1)OCO2	inactive: -21.9%
CCOC(=O)CN1C(=O)c2cccnc2Oc2ccccc21	inactive: -13.8%
O=c1cc(-c2ccccc2)n2c(SCc3cccc([N+](=O)[O-])c3)nnc2[nH]1	inactive: -3.2%
COc1ccc(NC(=O)CSc2nc(-c3ccco3)nc3cc(=O)[nH]n23)cc1	inactive: -8.01%
CC(=O)Nc1ccc(NS(=O)(=O)c2c(C)nc3sccn3c2=O)cc1	inactive: -3.96%
COc1cccc(Cn2c(NCc3ccc(C)cc3)nc3c2c(=O)n(C)c(=O)n3C)c1	inactive: 20.3%
Cc1ccc(-n2ncc3c(Nc4ccccc4C)ncnc32)cc1	inactive: -4.1%
CCOc1ccc(CNC(=O)C2CCCN(S(=O)(=O)N(C)c3ccc(F)cc3)C2)cc1OC (stereo not drawn)	inactive: -2.17%
Cc1nn(-c2ccc3nnc(C)n3n2)c(C)c1CCC(=O)Nc1ccc(OC(F)(F)F)cc1	inactive: -13.7%
COc1ccc(-c2cn3nc(N4CCCC(C(=O)NCc5ccccc5OC)C4)sc3n2)cc1 (stereo not drawn)	inactive: -7.3%
CC[C@]12CCCN3CCc4c(n(c5ccccc45)[C@@](O)(C(=O)OC)C1)[C@@H]32	inactive: -9.31%
CC(=O)c1ccc(NC(=O)c2ccc(-c3nc(COc4ccc(C)cc4)c(C)o3)cc2)cc1	inactive: -2.94%
CCOC(=O)c1cnc2c(ccc3ccccc32)c1Nc1ccc(Cl)cc1	inactive: -4.28%
CCC(=O)N1CCc2cc(S(=O)(=O)NC(CC(C)C)C(=O)NCc3ccc(F)cc3)ccc21 (stereo not drawn)	inactive: -6.02%
C[N+]1(CC2COC(c3ccccc3)(C3CCCCC3)O2)CCCCC1 (stereo not drawn)	inactive: -9.1%
COC(=O)c1cc(-c2ccc(OC)c(OC)c2)c2c(=O)[nH]c(=O)n(C)c2n1	inactive: -6.74%
Cc1cccc(C)c1NC(=O)Cn1c(=O)n(Cc2ccco2)c(=O)c2ccc(C(=O)NC3CCCC3)cc21	inactive: -4.35%
Cc1ccc(NC(=O)Cn2c(=O)n(Cc3nc(C)no3)c(=O)c3cc4c(cc32)OCO4)c(Cl)c1	inactive: -1.97%
Cc1ccc(S(=O)(=O)c2nc(-c3ccco3)oc2SCC(=O)Nc2ccc(F)cc2)cc1	inactive: -26.1%
O=C(CCn1c(=O)c2sccc2n(Cc2cccc(F)c2)c1=O)NCc1ccc2c(c1)OCO2	inactive: -14.6%
CC1Cc2cc(S(=O)(=O)CCC(=O)Nc3ccc(F)c(Cl)c3)ccc2N1C(=O)C1CC1 (stereo not drawn)	inactive: 14.2%
Cc1nc2sc(C(N)=O)c(N)c2c(-c2ccc(Br)cc2)c1C(=O)Nc1ccc(Cl)cc1	active: 88%
Cc1cccc(NC(=O)c2ccc(-c3nc(CSc4ccccc4)c(C)o3)cc2)c1C	inactive: 17.4%
O=c1c2ccccc2n(Cc2ccccc2F)c(=O)n1-c1cccc(F)c1	inactive: -8.48%
Cc1ccc(C(=O)Nc2onc3c2CCCC3)cc1	inactive: 38.5%

SMILES	activation
O=C(CSc1nnc2ccc3ccccc3n12)c1ccc(F)cc1	inactive: -18.5%
COc1ccccc1CNC(=O)c1cnc2sc(N3CCCCCC3)nn2c1=O	inactive: -15.4%
Cc1ccccc1C(=O)Nc1ccc2c(c1)CCCN2C(=O)c1cccs1	inactive: -13%
CSc1ccc(CNC(=O)CCn2c(=O)c3cccn3c3ccc(F)cc32)cc1	inactive: -19.2%
COC(=O)c1cc2occc2n1Cc1cccc(C)c1	inactive: -27.7%
COc1ccc(C(=O)N2CCC(c3nc(-c4ccc(S(=O)(=O)N5CCCC5)cc4)no3)CC2)cc1	inactive: -11%
COc1ccc(C(=O)Nc2ccc(-c3nc4ccccc4s3)cc2C)cc1Cl	inactive: -4.93%
COCCNC(=O)CCN1C(=O)c2cccnc2Oc2ccc(C)cc21	inactive: -6.46%
CC(=O)Nc1nonc1-c1nnc(SCC(=O)Nc2ccc(C)c(Cl)c2)n1-c1ccccc1	inactive: -7.87%
COc1ccc(-n2c(=O)c3ccccc3n(Cc3ccccc3C)c2=O)c(OC)c1	inactive: -17%
NC(=O)Cn1c(=O)n(CCCCCC(=O)NCc2ccccc2)c(=O)c2sccc21	inactive: -6.84%
Cc1ccc(-n2nc(C(=O)Nc3ccc(C)c(F)c3)c3c4ccccc4n(C)c3c2=O)cc1	inactive: -4.88%
CCOc1ccc(C(=O)c2cnc3ccc(Cl)cc3c2S(=O)(=O)c2ccc(C)cc2)cc1	inactive: -2.92%
CCc1ccccc1Nc1nc2cc(Cl)c(Cl)cc2nc1-n1nc(C)cc1C	inactive: 7.43%
Cc1ccc(-n2nc(CO)c(C(=O)NCCCc3ccccc3)n2)cc1	inactive: -7.42%
COc1ccccc1NC(=O)CSc1nc(-c2ccccc2F)nc2cc(=O)[nH]n12	inactive: 1.27%
CCN1CCc2nc3sc(C(=O)c4ccc(F)cc4)c(N)c3cc2C1	inactive: -55.2%
Cc1ccc(-n2c(=O)c3c(c4cc(C)ccc4n3C)n(CC(=O)NCc3ccccc3)c2=O)cc1	inactive: -3.96%
CC(C)(C)c1ccc(C(=O)N2CCC(c3nc4ccccc4o3)CC2)cc1	inactive: -14.1%
O=C(CCC1N=C2c3ccccc3N=C(SCc3ccccc3F)N2C1=O)NCc1ccc(F)cc1 (stereo not drawn)	inactive: 10.2%
Cc1ccc2occ(CC(=O)N(Cc3ccc(C(C)C)cc3)C3CCS(=O)(=O)C3)c2c1 (stereo not drawn)	inactive: -41.7%
COc1ccc(NC(=O)c2c(NCc3cccc(OC)c3)sc3c2CCCC3)cc1	inactive: -16.3%
CC1=C(c2ccc(Cl)cc2)S(=O)(=O)N=C1N1CCC(C(=O)NCc2ccccc2F)CC1	inactive: -11.6%
COc1ccc(-c2onc(C)c2C)cc1S(=O)(=O)NCC1CCN(Cc2cccc(F)c2)CC1	inactive: 15.8%
COc1ccc(CCNc2nc3c(-c4cccc(C)c4)nnn3c3ccccc23)cc1OC	inactive: 5.53%
COc1ccc(NC(=O)Cn2c(=O)ccc3cc(S(=O)(=O)N4CCCC4)ccc32)cc1Cl	inactive: 18.4%
